The list shows a part of the results.
B1: chr17:5384886:5384987:+|3pUTR|ENSG00000029725|unk|total|mutant (ssRNA)
RNA: GGGAGUUCUACAGUCCGACGAUCGGUUUAAGACCCGUCCCUUGGAUAAGCCCCAAGCGAAUUUGUCUUCAGAUUAUUAAAAUCCGUGCUGUAAAUCAGGGUGGGCAAUUCACAGCCUUUCUGAACUGACUGAACCCGAGCUUGCAACAGAGGAUUGAGCAUCA
B2: chr3:62294290:62294391:+|3pUTR|ENSG00000144724|msi1|total|mutant (ssRNA)
RNA: GGGAGUUCUACAGUCCGACGAUCAACCCGUCCUCUAAAAAUUCCCUAUUACUCCUACCGCAAUCUAAUAAAAACUACCUACACCGUUACUGUUUUCUUUCCUUCUUUGCCAAAUGUUUUAUAAUAAAUCUCUUAAUUACAUACCAACAGAGGAUUGAGCAUCA
B3: chr4:109463114:109463221:+|CDS|ENSG00000138802|unk|FALSE|unique (ssRNA)
RNA: GGGAGUUCUACAGUCCGACGAUCAGGAGCACAGCAGUUGUACAGCAGGGGUCCUCCUGCCCCUCAUAUUGUGGGAUCCACUCUAGGAUCUUUCCAAGGUGCUGCAUCGUCAGCAUCCCAUUUGCAUACGAGUGCCUCCCAACCCAACAGAGGAUUGAGCAUCA
B4: chr12:6238111:6238124:+|3pUTR|ENSG00000010278|msi1_unk|total|mutant (ssRNA)
RNA: GGGAGUUCUACAGUCCGACGAUCUGUUUGUUUUUGCUUGUUAUAUUAAGCAGAAAUCCUGCAAUGAAAGGUACUAUAUUUGCCCGACUCCCGACAAGAUAUUGUACAUAAAAGAAUUUUUUUGUCUUUAAACCGAUACAAAUGCAACAGAGGAUUGAGCAUCA
B5: chr16:67976092:67976228:-|CDS|ENSG00000141096|control|control|control (ssRNA)
RNA: GGGAGUUCUACAGUCCGACGAUCCCUCAGGGGCUGGAGGAUGUGUCCACAUACCCAGUCCUGAUAGAGGAGUUGCUGAGUCGUAGCUGGAGCGAGGAAGAGCUUCAAGGUGUCCUUCGUGGAAACCUGCUGCGGGUCUUCAGACAACAGAGGAUUGAGCAUCA
B6: chr19:10683396:10683509:+|CDS|ENSG00000129351|unk|FALSE|bound_elsewhere (ssRNA)
RNA: GGGAGUUCUACAGUCCGACGAUCGUUCCAAGGUGCUGGUUCCAACAAAAAGGUGGCGAAGGCCUACGCUGCUCUUGCUGCCCUAGAAAAGCUUUUCCCUGACACCCCUCUCGCCCUUGAUGCCAACAAAAAGAAGAGAGCCCCCAACAGAGGAUUGAGCAUCA
B7: chr7:41967724:41967825:-|CDS|ENSG00000106571|msi1|FALSE|bound_elsewhere (ssRNA)
RNA: GGGAGUUCUACAGUCCGACGAUCCCCCAUCAGCAACUAUUCCAACAGUGGGCUCGAGCUUCCUCUGACCGAUGGAGGUAGUAUAGGAGACCUCAGUGCCAUCGAUGAAACCCCAAUCAUGGACUCAACCAUUUCCACUGCAACCAACAGAGGAUUGAGCAUCA
B8: ENSG00000070961:be:win_6151|3pUTR|ENSG00000070961|bound_else_gene|NA|bound_elsewhere_windowed (ssRNA)
RNA: GGGAGUUCUACAGUCCGACGAUCCAAUCACUUUUUCUCUUUUAUCCUCUAACCAAAAAAUUGUUUAAUUUUGCAUCCCAAAUGUUUUUAAUCUUUGUAUAUUUUUUAAAAAUCCUUUUCUCCUCAUCAUUGCCUUUUUUGUGGCAACAGAGGAUUGAGCAUCA
B9: chr22:27980698:27980799:-|3pUTR|ENSG00000100154|unk|total|mutant (ssRNA)
RNA: GGGAGUUCUACAGUCCGACGAUCUAACCAUUAAUUUAUUUUAUAAAGAAAGGAAAUGCUGAAAGUCGUAUCCGUACUGAGUUCCGUUGGAGAAUUCCGAUAAGUAAGUAUCUUUCCGGUAAUUCUAAAAUUAAAAUCCUACCCCAACAGAGGAUUGAGCAUCA
B10: ENSG00000136451:be:win_1401|CDS|ENSG00000136451|bound_else_gene|NA|bound_elsewhere_windowed (ssRNA)
RNA: GGGAGUUCUACAGUCCGACGAUCCACCCCCGUCACUGCCCCAGUGAAUAUAGCACACCCUGUCACCAUCACAUCUCCAAUGAAUCUACCCACACCUAUGACAUUAGCCGCCCCUCUCAAUAUAGCAAUGAGACCUGUAGAGAGCAACAGAGGAUUGAGCAUCA
B11: chr12:6965432:6965572:-|3pUTR|ENSG00000215021|unk|total|mutant (ssRNA)
RNA: GGGAGUUCUACAGUCCGACGAUCUGCGAUGGUCCCCCACACCGGUUCCCUGAACCCCUCUUGGAUUAAGGAAGACUGAAGACCCGCCCCUUUUCUGGGGAAUUACUUUCCUCCUCCCUGUGUUAACUGGGGCUGUUGGGGACACAACAGAGGAUUGAGCAUCA
B12: chr19:12699869:12699961:-|3pUTR|ENSG00000105576|msi1_unk|FALSE|overlapping (ssRNA)
RNA: GGGAGUUCUACAGUCCGACGAUCGAGGGUGGGGGUGUAGUUACUUCCCAGUUGGCCAGAAAACUGGGCCUUGCAGACCCCCUUAGCAUUUUUUCCCUUUUUUUCCUUCCCUGCUUUCUACUUCUUUGGGGAGCCCCUUGUGUUCAACAGAGGAUUGAGCAUCA
B13: ENSG00000124766:be:win_2801|3pUTR|ENSG00000124766|bound_else_gene|NA|bound_elsewhere_windowed (ssRNA)
RNA: GGGAGUUCUACAGUCCGACGAUCUUUUUCCUUCACCGAUGCUCCAUCCUCGUAUUUCUUUUUCCUUGUAAAUGUAAUCAGAUGCCAUUUUAUAUGUGGACGUAUUUAUACUGGCCAAACAUAUUUUUUCUUUUGUCCCUUUUUCAACAGAGGAUUGAGCAUCA
B14: chr3:179334266:179334377:+|CDS|ENSG00000121864|unk|total|mutant (ssRNA)
RNA: GGGAGUUCUACAGUCCGACGAUCUUAUUUAUGUCAAUAUUGUGAAUAUUCAACAGGACAAAUUGAAGAUCUUAAAAUUCAUCCCGAUUUCAAGCAUUCAGCUGACUUGCCUCAUAAAUGCCGUGACUGCUUGAUGAGGUUUGGCAACAGAGGAUUGAGCAUCA
B15: chr1:230709994:230710823:-|CDS|ENSG00000135744|control|control|control (ssRNA)
RNA: GGGAGUUCUACAGUCCGACGAUCAAGGUCCUGUCUGCCCUGCAGGCUGUACAGGGCCUGCUAGUGGCCCAGGGCAGGGCUGAUAGCCAGGCCCAGCUGCUGCUGUCCACGGUGGUGGGCGUGUUCACAGCCCCAGGCCUGCACCAACAGAGGAUUGAGCAUCA
B16: chr9:14618660:14618761:-|3pUTR|ENSG00000175893|msi1|FALSE|unique (ssRNA)
RNA: GGGAGUUCUACAGUCCGACGAUCUUAGCUUUCCACAGGGAUUUCUUGAAAUGCUUUUGUUAUUAAACUCAAAAGGCAGUGAUUAGGAUGAAAUAAUUGUACAUAAUUUAUUUUAGUACUGACAGUGUUACAGAUUCUAAUUUACAACAGAGGAUUGAGCAUCA
B17: chr15:43184406:43184511:+|CDS|ENSG00000137842|unk|total|mutant (ssRNA)
RNA: GGGAGUUCUACAGUCCGACGAUCACUGCUGUACAUCUGGCAGGUUUAUUCCUGCUACUUUCUUUAUGCAACAUACGGCACCCCCGCUUUUUUAUUCUCCCCUUUGCGGACCUGGUUGACACUGCUGACACCUGUUCUCAUUCGCAACAGAGGAUUGAGCAUCA
B18: chr16:2586768:2586869:+|CDS|ENSG00000140992|unk|total|mutant (ssRNA)
RNA: GGGAGUUCUACAGUCCGACGAUCCUCCUCACACUCCCUGUCAGCCUCCGACACGGGCCUGCCCCAGAGGUCAGGCAGCAACACCGAGCAGUACAUUCACGAUCUGGACUCGAACUCCUUUGAACUGGACUUACAGUUUUCCGACAACAGAGGAUUGAGCAUCA
B19: chr7:5606511:5606625:+|3pUTR|ENSG00000075618|msi1_unk|FALSE|overlapping (ssRNA)
RNA: GGGAGUUCUACAGUCCGACGAUCGGGUGUCUUGGUCUUUUAUUUUUUGUAAGUGUCAUUUGUAUAACUCUAAACGCCCAUGAUAGUAGCUUCAAACUGGAAAUAGCGAAAUAAAAUAACUCAGUCUGCAGCCCCAGGCCGGCCCAACAGAGGAUUGAGCAUCA
B20: ENSG00000124766:be:win_1751|3pUTR|ENSG00000124766|bound_else_gene|NA|bound_elsewhere_windowed (ssRNA)
RNA: GGGAGUUCUACAGUCCGACGAUCACUUCGAGUUUGCUCCCCUUUGCUUGAAGAGACCCCCUCCCCCUUCCAACGAGCUUCCGGACUUGUCUGCACCCCCAGCAAGAAGGCGAGUUAGUUUUCUAGAGACUUGAAGGAGUCUCCCAACAGAGGAUUGAGCAUCA
B21: ENSG00000083799:stop:overlap|stop_codon|ENSG00000083799|stop_codon|NA|stop_codon (ssRNA)
RNA: GGGAGUUCUACAGUCCGACGAUCCCGAUCGGGAUGGUACUGAAAACGCCUUUCUUCUGCAUGUGGCACAGGGUUCUGGUUUGUAGUGGGACAGUUUGUAGUGGGAUCGCCUGUUCUGAGUGAUAUUUUCUGAGAAAAUCCUUUCAACAGAGGAUUGAGCAUCA
B22: chr12:56205560:56205676:-|3pUTR|ENSG00000181852|unk|total|mutant (ssRNA)
RNA: GGGAGUUCUACAGUCCGACGAUCCUCUUGUGGCACAGGCCAUAAUUGUUCCACCGACCCCUCUCCCGCCCUGUGACUGCCGUCCGUUACUUUGAUAAUUUUCUUUGGCCAUUGUUUGUUUAUAUUUCACAAACUCCACCUACUCAACAGAGGAUUGAGCAUCA

Biological target: MSI1 full-length (mouse, UniProt Q61474 1-362)
Sequence of UniProt Q61474 (Q61474 whole entry): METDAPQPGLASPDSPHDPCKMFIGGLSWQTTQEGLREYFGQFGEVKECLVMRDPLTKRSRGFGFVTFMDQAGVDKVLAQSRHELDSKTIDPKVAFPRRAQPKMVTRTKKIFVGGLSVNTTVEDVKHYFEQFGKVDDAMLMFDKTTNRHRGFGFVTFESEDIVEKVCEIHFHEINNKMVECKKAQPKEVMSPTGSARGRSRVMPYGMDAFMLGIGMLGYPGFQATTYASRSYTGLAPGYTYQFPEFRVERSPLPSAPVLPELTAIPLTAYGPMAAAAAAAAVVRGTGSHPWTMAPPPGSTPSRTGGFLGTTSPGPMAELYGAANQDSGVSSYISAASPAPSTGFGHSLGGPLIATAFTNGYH
Assay: nsRBNS (natural sequence RNA bind-n-seq); RBNS binding buffer (assumed for nsRBNS): 25 mM Tris pH 7.5, 150 mM KCl, 3 mM MgCl2, 0.01% Triton X-100, 500 ug/ml BSA, 20 U/ml SUPERase-In, 4 C; UNK is unkempt and MSI1 is Musashi-1; names of the RNAs are library labels; protein concentration not given here; high values mean tight binding

Binder | binding signal
B1 | 0.297 enrichment R
B2 | 8.49 enrichment R
B3 | 0.442 enrichment R
B4 | 0.379 enrichment R
B5 | 0.423 enrichment R
B6 | 0.717 enrichment R
B7 | 0.819 enrichment R
B8 | 3.25 enrichment R
B9 | 0.561 enrichment R
B10 | 5.67 enrichment R
B11 | 0.45 enrichment R
B12 | 1.19 enrichment R
B13 | 2.78 enrichment R
B14 | 0.18 enrichment R
B15 | 0.313 enrichment R
B16 | 1.51 enrichment R
B17 | 0.391 enrichment R
B18 | 0.708 enrichment R
B19 | 3.58 enrichment R
B20 | 0.611 enrichment R
B21 | 1.94 enrichment R
B22 | 0.685 enrichment R
